Assay results taken from the RNAGym collection of RNA variant scans (doi:10.7554/elife.90254).
The source gives no read counts; variants with many changes may rest on few reads.

B1: OR4K15 (parent)
chain: GUUAACGGUCAUAGGCCAUGGAAACUAGGAGCACCAUUUCGCUGCCAGUGAAGAAAUGAACAAAGAAAAUCUGGGCCAGGCAGGCAUCAAAAGAAAUAGUCUUGCGCUCAACCAGAAAGUCUGUAAUCAUUUUAAGGGUA

Variants of: B1
Experiment: self-cleavage, relative activity (ratio to wild type); higher = more cleavage; in vitro, sequencing; the parent is a self-cleaving ribozyme

Variant | self-cleavage
A13U U39C U120C | 0.84
A13U A54G U57C A98G A110G U120C | 0.04
U12C U37C A52G A64G A114U | 0.12
A13G U38C U43C A64G | 1.62
A13U A24G A68G U70C | 0.85
U12A A90G U103C A140G | 0.22
G14A A68G U127G | 1.57
A13U A67G U70A A82U | 0.14
A13C A47U A98G A114U | 0.03
A13G A55G G123A | 1.06
G15A A55U A59G | 1
U12A U38A C45G A52G U70C | 1.15
G15A A56G U72A A110G | 0.02
A13G G104A U127C A129C | 0.24
U12C A22U A51U A94G C107A | 0.02
U12C A47U A63U | 0.61
U12C A56G U70C A92G | 1.17
G14A C32U A117G U120C A140G | 0.89
U12A U49A U70C G79A U87A U97A | 0.36
A13G A30G A82U A95G A118G | 0.22
U12C A30G A51G U57C A62U A78G A94C | 0.29
G15C A59U A67G C77U A116G U124A | 0.33
A13U A24G A62U C113U | 0.08
A13G A67G A82G A111G U120C | 0.04

Variant | self-cleavage
G14A A18U A62G U130C | 0.54
A13U G74C A116G | 0.07
A13U U38C A60G | 2.01
A13U A64G U130C | 1.1
U12C A33G A91G | 0.55
A13G G80A U103C U131C | 0.31
G14A A30U A52G A96G A98G | 0.12
U12C A33G A68G A82G | 0.29
U12C A64G A91G | 1.08
A13G C40U A55G A64G U102A A116G | 0.79
A13G A64G A116G A118G | 0.08
U12C A78G A89G A92G A117U | 0.2
A13G A92G U97A A118G | 0.57
A13U G31U A60G | 0.94
A13G A60G A68G | 0.9
A13G A30G A92G A140G | 0.93
A13G A94C A114G | 0.67
U12A A55G A92G | 1.1
G14A C71A A96G U122C U133C | 0.08
A13G A66G U108G | 0.09
U12C U132C A140G | 1.32
U12C C42U U87C A125G | 0.24
A13G A92G C109U | 0.89
G15A A30G U38C A86C A96G | 1.11

Variant | self-cleavage
U12C G99U A118G A140G | 0.13
U12A A114G A118G | 0.27
U12C A52G U97C | 1.81
A13G A24U U43C A66G | 1.87
G14A A59G U120C | 0.37
U12A U103A U122C | 1.21
A13G A116G A125G | 0
U12C C16A A92G | 0.71
G14A U39A A51G | 1.04
U12A A59U A63G U132C | 1.24
A13U A33C U37C A63G | 1.43
U12C U19C C85U A91G A116G | 0.11
A13G A47G A54G A55G U72C A94G U122C | 0.2
G14U G20U A56G | 1.6
U12C A18U A126G A135C | 1.42
U12C A18G C113G U127C | 0.01
A13G U49A A118U | 0.53
U12C A55G A90G | 1.22
G15C A18G U102G | 0.84
A13U G31U A52G A68G | 1.09
A13G A59U A66U | 1.13
U12G U49C A69G U131C | 1.39
A13G A90G A94G | 0.26
A13U G15A A114C | 0.04

Variant | self-cleavage
A13U U72G A118G U130C | 0.09
G15A U43A A67U C109U A110G | 0.01
A13G A52U A62G | 1.16
A13G A23G A110G A116G | 0.05
U12C C32U A116G U130C | 1.22
G14A U39C A67G | 1.23
U12C U37C A55C A59U U120C | 0.9
A13G A60C A98U | 1.61
U12A U43A A67U U72C A82G U100A A111G A114C A135G | 0
U12A A66G U70C | 1.05
U12C A22G A33C U108A | 0.12
G15C A56G A135C | 0.5
A13G U26A A51U A69G | 1.36
U12C U70A U87C A114C A126U U130C | 0
A13G A24G G93A | 1
A13G A82U A114U | 0.08
A13U A18G A82G U127C A140G | 0.47
A13U U102A U108C | 0.02
U12C A56G A59G U97C | 1.2
A13U U19C A47G A116U | 1.42
G14U A27G A60G | 1.31
U12C A18G U132C | 1.23
U12A U57C A114C | 0
U12C U37C U108C | 0.03

Variant | self-cleavage
A13U U72A A78G A118U | 0.08
U12C C42G A59U A117G A140U | 1.37
A13G U39A A95G | 0.87
U12C A13G A18G A64G U72C | 0.56
U12A A94G A96G U97A | 1.17
A13U A66G A90G | 1.04
A13G A95G U100C | 1.62
U12C U38C A78U A94G | 0.41
A13G A64U A86G | 0.88
A13G A54G U87C U100A | 0.9
A13C U19A G20A A91G | 1.21
U12C A110U A135G | 1.06
G15A U38C A63G A64C G83A A126G | 0.88
U12C A18U A68U A94G | 0.79
A13G A36U U132C | 1.83
U12C U39A A52U U70C C76U A82G U122C | 0.12
A13G A33G U133C | 0.99
A13G A24G A118G | 0.81
A13G A22G A24G A60G A96G A129G G138A | 0.55
A13G A69G U102C | 1.22
G15C U122C U131C U139C | 0.54
A13G A24G A33U U103C | 1.06
A13U U37C U38C U102G A129C | 0.36
A13G A30G U37C U131C | 1.27

Variant | self-cleavage
A13G U49G A90U | 0.73
U12C C34U A94G U103C U127C | 0.3
G14A A116G A140G | 0.45
A13G U38G U49A U122C | 0.36
G14A A59G A67G | 0.66
U12C A55G U132C | 1.09
A13G A90G A95G | 1.72
A13G A66G A126G | 0.73
U12C C25A A52G A91G | 1.29
U12C U26A A56G | 0.74
A13G A23G A33U U57C U100C A114G | 1.48
A13G A68G A78U A111G | 0.06
A13G A52U A66G A89C | 0.44
A13U A52U A69G | 1.26
G14A A52G A110G | 0.07
A13G A23G U72A A91G U103C G137U | 0.19
U12A A52G A78U A96G A110G A129U | 0.03
G15A A27U U43C U87C | 0.53
A13G A23U A54G | 0.39
U12C U102C U108C U122C | 0
A13G A78G U87A A96G | 0.53
U12G U19C U127C | 0.29
A13G A60G C107A U127C | 0.07
G15A A52G A67G A135G | 0.56

Variant | self-cleavage
U12A A91U G104A G115U | 0.01
U12C U127C U132C | 0.8
A13G A94U A118G | 0.68
G15A U26C U43C | 1.16
U12C A59G A66G A94U | 0.69
A13G A67G G80C A117U | 0.21
A13G A47G C71A U72C U130C | 0.09
A13U A23G U26A U37C A63G | 1.29
U12C U39C A52G A59G A64U A91G | 0.24
G15C A33G A51G | 0.62
U12C U37C U38C A60C U108C A110G U130C | 0.01
G14A A24G A82G | 0.66
U12C U19C A66G | 1.1
A13G U102C A134G | 1.22
U12C A18G A36G C40A A68G U97C | 0.86
U12C A59U A68G U122A U132C | 1.21
A13C A23U U102C | 1.82
U12C A51G A52U | 1.18
U12C A51G A52G U122C | 1.55
A13U A82G A114U | 0.03
G15A U37A U122A | 1.05
U12C A24G A51G | 1.23
U12C G75C A126G | 0.12
